Among all 73,000 compounds or so, about 1,800 (2.5%) were called active. This list was built around the results that the source calls inconclusive (neither active nor inactive); the mix of calls is not that of the screen. The call rests on the fitted dose curve; in most records, active means well fitted activation curve with a large enough effect; inconclusive means small, poorly fitted or top-dose-only effect; inactive means no such curve, though single readings can be large or run the other way. Potencies of inconclusive entries are left out as doubtful fits.
Experiment: qHTS Assay for Agonists of the Thyroid Stimulating Hormone Receptor: Activators of Intracellular cAMP Concentrations in Parental HEK 293; further: nearly all actives have a fitted effect of over 55% in size; on activation: % of control where 0% means no effect
Conditions: parental HEK293 CNG cAMP sensor, membrane potential fluorescence; activation: at 57.1 µM (top of the series) unless noted
Method in brief: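 Counterscreen for endogenous-receptor signalling: CNG-channel HEK 293 cells report cAMP rise by membrane depolarization. After 60 min dye equilibration with 100 uM RO 20-1724, compounds incubated 30 min before bottom-read fluorescence at 590 nm.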
Potency means the concentration at half of the fitted maximal effect; tags describe the fitted curve by direction and shape.

Compound	Potency	activation
C=CCN(C(=O)CNC(=O)c1ccco1)C(C(=O)NC1CCCCC1)c1ccccc1 (stereo not drawn)	inconclusive [activator, partial curve]	–
Cn1cccc1C(=O)N1CCC[C@@]2(CCN(Cc3ccccc3)C2)C1	inactive	–
CCOc1ccc2nc(NCCNC(=O)C(C)C)c(C)cc2c1	inconclusive [activator, partial curve]	–
COc1ccc(O[C@H]2C=C[C@@H](c3ccccc3)O[C@H]2COC(=O)CC/C(C)=N\O[C@@H](C)c2cc(-c3c(C)cc(C)cc3C)no2)cc1	–	inactive: 1.49% [at 11.4 µM]
CCC(C(=O)N1CC2(C)CC1CC(C)(C)C2)N1C(=O)c2ccccc2C1=O (stereo not drawn)	inconclusive [activator, partial curve]	–
COCCn1c(=O)c(-c2cc(F)cc(F)c2)nc2cnc(OCc3ccccc3)nc21	inactive	–
COC(=O)c1ccc(Cl)c(NS(=O)(=O)c2ccc3c(c2)OCCO3)c1	inconclusive [activator, single point]	–
Nc1nc(SC/C=C\c2ccccc2)c2[nH]cnc2n1	–	inactive: -3.04% [at 11.4 µM]
COc1cc(C(=O)Nc2nncs2)cc(OC)c1OC	inactive	–
Cc1ccc2[nH]c(C(=O)O)c(NC(=O)CN3CCN(c4cccc(C)c4C)CC3)c2c1	inconclusive [activator, partial curve]	–
CCCNC(=O)OC[C@@H]1O[C@H](CCO/N=C(\C)CCN2CCc3nc(CC)c(CC)cc3C2)C=C[C@@H]1Oc1ccc(OC)cc1	–	inactive: 5.85% [at 11.4 µM]
COc1cccc(C2=NOC(C(=O)Nc3cc(OC)c(OC)c(OC)c3)C2)c1 (stereo not drawn)	inconclusive [activator, single point]	–
CCOc1c2c(nc3ccc(Cl)cc13)CCC2	inconclusive [activator, single point]	–
Cc1ccc2[nH]c(=O)c(CN(Cc3cccs3)Cc3nnnn3CC3CCCO3)cc2c1 (stereo not drawn)	inconclusive [activator, partial curve]	–
c1ccc2c(c1)CCC[C@H]2C1=NCCN1	inactive	–
Cc1nc2ncnn2c(N2CCN(C(c3ccccc3)c3ccccc3)CC2)c1C	active: 31.6 µM	–
COC(=O)c1ccc(OC)c(CSc2nnc(COc3ccc(OC)cc3)o2)c1	active: 12.6 µM	–
CCOC(=O)n1c(SCC(=O)N(CC)CC)nc2ccccc21	inconclusive [activator, partial curve]	–
O=S(=O)(c1ccccc1)N1CCC[C@@]2(CCN(c3ccccc3)C2)C1	inconclusive [activator, full curve, poor fit]	–
Cc1ccc(-c2nnc(N(C)C(=O)c3cccnc3)s2)cn1	inactive	–
CCN(CC)CCn1c(-c2ccccc2)nc2c(NCc3ccccc3)nc(C)nc21	inconclusive [activator, partial curve]	–
COCC(=O)Nc1c(C(=O)Nc2cccc(OC)c2)oc2ccccc12	inconclusive [activator, partial curve]	–

Compound	Potency	activation
O=C1c2ccccc2C(=O)N1CCCCCc1nc(-c2ccccc2)no1	inconclusive [activator, single point]	–
CCOC(=O)C(NC(=O)c1ccccc1OCC)(Nc1ncccn1)C(F)(F)F (stereo not drawn)	inconclusive [activator, single point]	–
O=C(Cn1c(=O)n(CC2CCCO2)c(=O)c2ccccc21)c1ccccc1 (stereo not drawn)	inconclusive [activator, single point]	–
O=C(Nc1ccc2oc(-c3ccccc3)nc2c1)c1ccncc1	inconclusive [activator, single point]	–
Cn1nc(-c2ccc(Cl)cc2)c2cc(C(=O)N3CCN(c4ccccn4)CC3)sc21	inconclusive [activator, single point]	–
C=CCn1cnc2c(c1=O)c1nc3ccccc3nc1n2/N=C/c1cccc(OC)c1	inactive	–
O=C(NC1CCCC1)C(c1cccs1)N(CC1CCCO1)C(=O)Cc1cccs1 (stereo not drawn)	active: 0.316 µM	–
CCOc1cc(N2CCOCC2)c(OCC)cc1NC(=O)CCS(=O)(=O)c1ccc(Cl)cc1	inactive	–
COC(=O)[C@@]1(Cc2ccc(OC)cc2)[C@@H]2[C@@H](CC(=O)[C@H]2CC(=O)C(=O)N2CCCC2)CN1C(=O)c1ccccc1	inactive	–
Cn1c(=O)n(Cc2ccccc2F)c(=O)c2c1nc1n2CCCN1CCc1ccccc1	inactive	–
CCCC(c1nnnn1Cc1cccs1)N1CCN(C2CCCC2)CC1 (stereo not drawn)	inconclusive [activator, full curve]	–
CCc1cccc(CC)c1NC(=O)CN1CCN(c2ccccc2)CC1	inactive	–
COc1cc(C)c(N(C(C)=O)c2ccccc2)c(C)c1	inconclusive [activator, single point]	–
CO[C@@H]1COC(=O)C/C=C\[C@@H](C)[C@H](OC)COC(=O)[C@H](COCc2ccccc2)NC(=O)C/C=C\[C@H]1C	–	inactive: 0.731% [at 11.4 µM]
O=C(Nc1ccc2nn(-c3ccccc3)nc2c1)c1ccc2c(c1)OCCO2	inconclusive [activator, single point]	–
Fc1ccc(-c2ccc(-c3nn4c(-c5ccco5)nnc4s3)o2)cc1	inconclusive [activator, single point]	–
Cc1nc2ccccc2c(=O)n1CCCO	inconclusive [activator, single point]	–
CSCC[C@@H]1NC(=O)C/C=C\[C@@H](C)COC(=O)[C@@H](CCSC)NC(=O)C/C=C\[C@@H](C)COC1=O	–	inactive: -0.425% [at 11.4 µM]
c1coc(-c2nc(-c3ccncc3)no2)c1	inconclusive [activator, single point]	–
COCCn1c(=O)cnc2cnc(N3CCOCC3)nc21	inconclusive [activator, partial curve]	–
C=C(C)c1cccc(C(C)(C)NC(=O)N2CCN(c3ncccn3)CC2)c1	inconclusive [activator, partial curve]	–

Source: PubChem BioAssay AID938 (National Center for Advancing Translational Sciences (NCATS), 2007)
